# Screen size: about 420,000 compounds; about 64,000 (15%) were called active. Inconclusive means that the source gave no clear call. Such entries were picked first, then a sample of the others. Calls follow the shape of the dose curve; as a rule, active = well fitted inhibition curve with a large enough effect; inconclusive = small, poorly fitted or top-dose-only effect; inactive = flat fitted curve, though single readings scatter. No potency is given beside an inconclusive call; the fits are too rough. More than one record can exist for a structure, and the calls need not agree.
# Test: qHTS for Inhibitors of human tyrosyl-DNA phosphodiesterase 1 (TDP1): qHTS in cells in absence of CPT; also: nearly all actives have a fitted effect of over 55% in size
# Conditions: DT40 Tdp1-/- hTDP1 cells, no CPT, ATP luminescence, 48 h; activity change, negative = growth inhibition: at 46.2 µM (top of the series) unless noted
# How it was run: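 Chicken DT40 Tdp1-/- cells complemented with human TDP1, screened without camptothecin (DMSO vehicle only), 400 cells/well. Compounds pin-transferred, cells incubated at 37 °C for at least 48 hr. Growth read as ATP-dependent luminescence (CellTiter-Glo, 30 min at RT).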
# % is scaled to controls: 0 for no effect and ±100 for the full control effect; potency is read from the fitted curve at half-maximal effect; tags tell the direction and shape of the fitted curve.
SMILES,Potency,"activity change, negative = growth inhibition"
CC(C)Cc1nnc(NC(=O)C23CC4CC(CC(C4)C2)C3)s1,active: 18.4 µM,–
CC1(C)CC(=O)C=C(NC2CCCCCCC2)C1,–,inactive: -29.2%
CC(O)CNCCOc1ccccc1OCc1ccccc1 (configuration not stated),"inconclusive [inhibitor, single point]",–
COc1cccc(CNC(=O)c2ccc(N3CCOCC3)c([N+](=O)[O-])c2)c1,–,inactive: -17.9%
CC(=O)N1CCCc2cc(S(=O)(=O)NC(C(=O)NC3CCCCC3)C(C)C)ccc21 (configuration not stated),"inconclusive [inhibitor, partial curve, poor fit]",–
Cc1nc(C(=O)N(C)C)nn1-c1ccc([N+](=O)[O-])cc1,–,inactive: -19.4%
Cc1ccc(C(=O)C(C)OC(=O)CCS(=O)(=O)c2ccc(C)cc2)cc1 (configuration not stated),–,inactive: -15.6%
Cc1ccc(NC(=O)Cn2cnc([N+](=O)[O-])c2)cc1C,–,inactive: -5.37%
CN(Cc1ccccc1)C(=O)c1ccc(NC(=O)Cc2ccc(NC(=O)C3CCCN(C(=O)C4CCCC4)C3)cc2)cc1 (configuration not stated),"inconclusive [inhibitor, single point]",–
Cc1ccccc1NCC(=O)N/N=C/c1c(C)c(C(=O)c2ccc(Cl)cc2)n2ccccc12,active: 16.4 µM,–
COc1ccc(S(=O)Cc2ccc(C(=O)N3CCN(C(=O)c4ccco4)CC3)o2)cc1 (configuration not stated),–,inactive: -0.0921%
Cc1ccc(-c2nnn(CC(=O)N(Cc3cccs3)C(C(=O)NC(C)(C)C)c3ccco3)n2)o1 (configuration not stated),"inconclusive [inhibitor, single point]",–
COC(=O)c1c(NC(=O)c2nc3ccccc3s2)sc2c1CCN(C(C)=O)C2,active: 6.51 µM,–
Cc1ccc(CN(CC(=O)NC2CCCCC2)C(=O)c2csnn2)cc1,–,inactive: -12%
CCCc1nc2ccccc2n1CC(O)COc1ccc(C(=O)OC)cc1 (configuration not stated),active: 20.6 µM,–
CCOC(=O)c1ccc(NC(=O)Cn2nnc(-c3ccccc3F)n2)cc1,"inconclusive [inhibitor, single point]",–
CCc1ccc(CNC(=O)c2cc3ccccn3n2)cc1,"inconclusive [inhibitor, single point]",–
CSc1ccc(/C=N/NC(=O)c2ccccc2Cl)cc1,active: 13 µM,–
Cc1nn(Cc2ccccc2)c(C)c1NC(=O)c1noc2c1CCc1ccccc1-2,"inconclusive [inhibitor, single point]",–
COCCCN1C(=O)c2ccccc2CC1(C)C(=O)NC1CCCCC1 (configuration not stated),–,inactive: -9.4%
COCCNC(=O)C1(C)Cc2c(-c3ccc4c(c3)OCO4)ccnc2O1 (configuration not stated),active: 8.2 µM,–
COc1cc(OC)c(-c2nn3c(-c4ccco4)nnc3s2)cc1OC,active: 14.6 µM,–
COc1ccccc1NC(=O)C[n+]1ccccc1,–,inactive: -2.16%
Cc1c(C(=O)NC2CCCCC2)oc2ccc(F)cc12,"inconclusive [inhibitor, partial curve]",–

SMILES,Potency,"activity change, negative = growth inhibition"
Cc1ccccc1-c1cc(C(=O)NCC2CC2)n(CC2CC(c3cccnc3)=NO2)n1 (configuration not stated),"inconclusive [inhibitor, single point]",–
O=C(CSc1nnc(-c2ccccc2F)o1)Nc1cccc(C(F)(F)F)c1,"inconclusive [inhibitor, single point]",–
Cc1cnc2nc(-c3ccccc3)ccc2c1,"inconclusive [inhibitor, single point]",–
Nc1ncc(C(=O)O)c(-c2ccccc2)n1,–,inactive: -8.47%
CCOC(=O)c1c(C)[n+](-c2ccc(C)cc2)c(CC)c2cc(OC)c(OC)cc12,active: 2.59 µM,–
CCC1CCCCN1S(=O)(=O)c1ccc(C(=O)Nc2sc3c(c2C(N)=O)CCC3)cc1 (configuration not stated),"inconclusive [inhibitor, partial curve, poor fit]",–
COc1ccc(Nc2nc(-c3cccs3)nc3ccccc23)c(OC)c1,active: 13 µM,–
Cc1nn(C)c(C)c1CCC(=O)N1CCCC(C(=O)c2cccc(OC(C)C)c2)C1 (configuration not stated),"inconclusive [inhibitor, partial curve]",–
Cc1ccc2nc(NC(=O)CSc3nccn3-c3ccc(Cl)cc3)sc2c1,"inconclusive [inhibitor, single point]",–
CCN(CCCc1ccccc1)CCCc1ccccc1,active: 23.1 µM,–
Cc1cc(C)n(CCCNC(=O)c2ccc(C)c(S(=O)(=O)N3CCOCC3)c2)n1,–,inactive: -6.1%
COc1ccc(CC(=O)Nc2cc(F)ccc2F)cc1S(=O)(=O)N1CCOCC1,"inconclusive [inhibitor, single point]",–
O=C1CC(N(C(=O)c2ccco2)c2cccc(Cl)c2)C(=O)N1c1cccc(Cl)c1 (configuration not stated),–,inactive: -1.32%
COc1ccccc1CNc1nc(NCCN2CCNC2=O)c2sccc2n1,"inconclusive [inhibitor, single point]",–
CC(C)(C)OC(=O)N1CCC(c2c(C(=O)N3CCN(c4ccccn4)CC3)cnn2-c2ccccc2)CC1,"inconclusive [inhibitor, partial curve]",–
COc1ccc(CCNC(=O)c2ccccc2NC(=O)c2ccco2)cc1OC,"inconclusive [inhibitor, partial curve]",–
COc1cc(Cl)cc(C2NC(=O)NC(C)=C2C(C)=O)c1OCC(=O)O (configuration not stated),–,inactive: -19.8%
Cc1ccc(S(=O)(=O)N2C[C@H]3[C@H]4C(=O)N(c5ccccc5)C(=O)[C@H]4CC(=O)[C@H]3[C@@H]2c2ccccc2)cc1,–,inactive: 4.61%
O=C(c1ccccc1)N1CCN(C2CCCCC2)CC1,–,inconclusive: -21.1% [inhibitor]
COC(=O)/C(C#N)=C/c1c(Oc2cc(C)cc(C)c2)nc2ccccn2c1=O,"inconclusive [inhibitor, single point]",–
COCCN(Cc1ccccc1)C(=O)c1cc(-c2ccc(OC)c(OC)c2)nc2ccccc12,"inconclusive [inhibitor, single point]",–
O=C(CCC(=O)N1CCN(c2ccc(Cl)c(Cl)c2)CC1)c1ccccc1,active: 18.4 µM,–
COc1cccc(CNc2nc3cc(-c4ccc(C(=O)N5CCN(C)CC5)cc4)sc3c(=O)n2C)c1,"inconclusive [inhibitor, single point]",–
Nc1nn(-c2ccccc2)c(N)c1N=Nc1cccc(F)c1,active: 2.59 µM,–

SMILES,Potency,"activity change, negative = growth inhibition"
CCOc1ccc(NC(=O)CN2CCCC2c2cccs2)cc1S(=O)(=O)N1CCCC1 (configuration not stated),"inconclusive [inhibitor, single point]",–
CCc1ccc(NC(=O)CSc2nc3ccccc3c(=O)n2CCCC(=O)N2CCCC2)cc1,"inconclusive [inhibitor, single point]",–
COc1ccc(CNC(=O)C[C@H]2C[C@H](C(=O)N3CCOCC3)[C@@]3(C)c4[nH]c5cc(-c6ccco6)ccc5c4CCN3C2=O)cc1OC,"inconclusive [inhibitor, single point]",–
O=C(C[n+]1ccccc1Cl)c1ccc(I)cc1,"inconclusive [inhibitor, single point]",–
COCCNC(=O)Cn1c(=O)n(CCCCCC(=O)NCc2ccccc2Cl)c(=O)c2sccc21,–,inactive: -28.1%
CCOc1ccccc1NC(=O)c1nnn(-c2ccc3c(c2)OCCO3)c1N,"inconclusive [inhibitor, partial curve, poor fit]",–
CC(NC(=O)CN(c1cccc(C(F)(F)F)c1)S(C)(=O)=O)c1ccccc1 (configuration not stated),"inconclusive [inhibitor, single point]",–
COC(=O)c1cc(OC)c(OC)cc1NC(=O)CSc1nnnn1Cc1ccccc1,"inconclusive [inhibitor, single point]",–
Cc1ccc(S(=O)(=O)N(CC(=O)N=Nc2c(O)[nH]c3ccccc23)c2ccc(C)c(C)c2)cc1,active: 20.6 µM,–
CC(C)(C)c1ccc(C(=O)NC(=S)NCc2cccnc2)cc1,active: 18.4 µM,–
CCN(CC)C(=O)CSc1nnc(-c2c[nH]c3ccccc23)o1,"inconclusive [inhibitor, partial curve]",–
O=S(=O)(Cc1ccccc1)c1cnc2ccccc2n1,active: 16.4 µM,–
O=C(c1ccc2ccccc2n1)N1CCN(Cc2c(F)cccc2Cl)CC1,"inconclusive [inhibitor, single point]",–
COc1ccc(NC(=O)C(NC(=O)Cc2cccs2)c2ccccc2)cc1 (configuration not stated),"inconclusive [inhibitor, single point]",–
COc1cccc(/C=C2\SC(=S)N(C(C)C(=O)NC3C=CS(=O)(=O)C3)C2=O)c1 (configuration not stated),"inconclusive [inhibitor, single point]",–
Cc1cccc(Cn2c(SCc3ccc(C(=O)NCc4ccccc4F)cc3)nc3ccncc32)c1,active: 23.1 µM,–
Cc1ccc2c(c1)N(C(=O)CCC(=O)NCCN1CCOCC1)CCO2,–,inactive: -6.24%
Cc1ccc(OCC(=O)NC(=S)Nc2cccc(NC(=O)c3ccc(Cl)cc3Cl)c2)cc1,"inconclusive [inhibitor, single point]",–
COc1ccc(Br)cc1C1Nc2cccc3cccc(c23)N1,"inconclusive [inhibitor, single point]",–
Cc1ccc(N2CN=C(c3ccccc3)NC2=S)cc1,"inconclusive [inhibitor, single point]",–
O=C(Cn1sc2ccccc2c1=O)Nc1ccc(Br)cc1,active: 2.31 µM,–
COc1ccc2nc(Nc3ccccc3)sc2c1,"inconclusive [inhibitor, partial curve]",–
COc1ccc(S(=O)(=O)Oc2cccc(C(=S)N3CCOCC3)c2)cc1,–,inconclusive: -31.4% [inhibitor]
COc1ccc(N2CC(C(=O)Nc3c4c(nn3-c3ccccc3)CS(=O)(=O)C4)CC2=O)cc1 (configuration not stated),–,inactive: 1.85%
